Reference: ChEMBL document CHEMBL5052851, “Mettl3 modulators” (2021)

Tests used:
MOLM-13 [1] = assay: Antiproliferative activity against human MOLM-13 cells after 48 hrs by Cell Titer-Glo assay; type: functional, cell-based; conditions: MOLM-13, 48 h
[2] = molecular target: T1, N6-adenosine-methyltransferase catalytic subunit (Homo sapiens, UniProt Q86U44); assay: Inhibition of METTL3-mediated m6A methylation in human MOLM-13 cells assessed as reduction in mRNA level measured after 24 hrs by LC-MS/MS analysis; type: cell-based
[3] = Inhibition of METTL16 (unknown origin) using CGAUACAGAGAAGAUUAGCAUACGCAAAUUCGUGAAGCG-biotin and SAM as substrates preincubated for 5 mins followed by substrate addition incubated for 220 mins by TopCount scintillation counting method; design: species or system Homo sapiens
[4] = molecular target: T1, N6-adenosine-methyltransferase catalytic subunit; assay: Inhibition of METTL3 (unknown origin) using UCUGGACUAAA-biotin and 3H-SAM as substrates preincubated for 5 mins followed by substrate addition incubated for 30 mins by TopCount scintillation counting method
MOLM-13 [5] = assay: Antiproliferative activity against human MOLM-13 cells after 96 hrs by Cell Titer-Glo assay; type: functional, cell-based; conditions: MOLM-13, 96 h

T1 sequence (Q86U44 whole entry): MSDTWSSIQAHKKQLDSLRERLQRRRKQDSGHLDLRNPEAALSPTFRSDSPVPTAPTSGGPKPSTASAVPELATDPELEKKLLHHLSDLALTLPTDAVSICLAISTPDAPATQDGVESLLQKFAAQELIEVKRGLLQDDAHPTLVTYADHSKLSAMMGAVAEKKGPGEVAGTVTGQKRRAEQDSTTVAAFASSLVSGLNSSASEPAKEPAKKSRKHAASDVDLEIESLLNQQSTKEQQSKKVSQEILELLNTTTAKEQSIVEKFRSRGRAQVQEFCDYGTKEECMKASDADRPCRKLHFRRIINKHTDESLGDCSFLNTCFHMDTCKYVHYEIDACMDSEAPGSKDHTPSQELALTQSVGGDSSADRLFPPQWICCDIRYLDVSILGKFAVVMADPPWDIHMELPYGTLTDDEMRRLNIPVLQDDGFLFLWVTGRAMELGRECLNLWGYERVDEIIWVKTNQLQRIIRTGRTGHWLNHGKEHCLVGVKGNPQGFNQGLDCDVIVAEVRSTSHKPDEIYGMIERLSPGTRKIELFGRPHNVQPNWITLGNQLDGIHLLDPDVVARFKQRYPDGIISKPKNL

| SMILES | IC50 (MOLM-13 [1]) | IC50 [2] | IC50 [3] | IC50 [4] | IC50 (MOLM-13 [5]) |
| --- | --- | --- | --- | --- | --- |
| CNc1ccc2ccc(OCc3cncc(-n4ccc5c(N)ncnc54)c3)cc2n1 | < 1000 nM | 1000 nM | ≥ 1000 nM | < 10 nM | – |
| CNc1ccc2ccc(OCc3cncc(-c4c(C)[nH]c5c(N)ncnc45)c3)cc2n1 | ≥ 10000 nM | ≥ 10000 nM | ≥ 1000 nM | < 10 nM | – |
| CNc1ccc2ccc(OCc3cncc(-n4cc(C5CCCC5)c5c(N)ncnc54)c3)cc2n1 | < 1000 nM | 1000 nM | ≥ 1000 nM | < 10 nM | < 1000 nM |
| CNc1ccc2cc(CCc3cccc(-n4cc(Cl)c5c(N)ncnc54)c3)ccc2n1 | 1000 nM | ≥ 10000 nM | ≥ 1000 nM | – | 1000 nM |
| CNc1ccc2ccc(OCc3cncc(-n4cc(CC5CC5)c5c(N)ncnc54)c3)cc2n1 | < 1000 nM | 1000 nM | ≥ 1000 nM | < 10 nM | – |
| CNc1ccc2ccc(OCc3cncc(-c4c[nH]c5c(N)ncnc45)c3)cc2n1 | ≥ 10000 nM | ≥ 10000 nM | ≥ 1000 nM | < 10 nM | – |
| CCc1cc(N)c2ccc(OCc3cncc(-n4ccc5c(N)ncnc54)c3)cc2n1 | ≥ 10000 nM | ≥ 10000 nM | ≥ 1000 nM | < 10 nM | – |
| CNc1ccc2ccc(OCc3cc(CO)cc(-n4cc(Cl)c5c(N)ncnc54)c3)cc2n1 | < 1000 nM | ≥ 10000 nM | ≥ 1000 nM | < 10 nM | – |

The next lines start with the values.

| IC50 (MOLM-13 [1]) | IC50 [2] | IC50 [3] | IC50 [4] | IC50 (MOLM-13 [5]) | SMILES |
| --- | --- | --- | --- | --- | --- |
| 1000 nM | ≥ 10000 nM | ≥ 1000 nM | < 10 nM | – | Nc1ncnc2c1c(Cl)cn2-c1cncc(COc2ccc3ccc(N4CCC4)nc3c2)c1 |
| 1000 nM | 1000 nM | ≥ 1000 nM | < 10 nM | – | CCNc1ccc2ccc(OCc3cncc(-n4cc(Cl)c5c(N)ncnc54)c3)cc2n1 |
| 1000 nM | 1000 nM | ≥ 1000 nM | < 10 nM | 1000 nM | CNc1ccc2ccc(OCc3cncc(-n4cc(Cl)c5c(N)ncnc54)c3)cc2n1 |
